# Laboratory results as given in publication PMC12136788.
# The list shows a part of the results.
# T1: UNK ZnF1-3 (human, UniProt Q9C0B0 31-174)
# T1 sequence: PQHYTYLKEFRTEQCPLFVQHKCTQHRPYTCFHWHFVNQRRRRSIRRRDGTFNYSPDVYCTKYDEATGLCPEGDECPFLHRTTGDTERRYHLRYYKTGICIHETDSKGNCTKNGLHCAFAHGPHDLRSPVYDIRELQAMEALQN
# B1: 32067658_32067778_2546_3pUTR_ENSMUSG00000039262_ENSMUST00000036691|mouse|control|control (ssRNA)
# RNA: GGGAGUUCUACAGUCCGACGAUCGACUUCGGGUGGGGCAGUGAGUAGCCUUUGUUCUGCAGUGCCAUGUAGCCCUCUGGGCUCCACACAGGAGCUGGGUCGAGGGCGGUCACUUUCCGUUCUUGGAGCGAGGGCACACAGUUUCAACAGAGGAUUGAGCAUCA
# B2: chr7:149068622:149068623:-_ENSMUSG00000025139_ENSMUST00000001950|mus_hu|mus_mus_mus_hu_False|48_68 (ssRNA)
# RNA: GGGAGUUCUACAGUCCGACGAUCGUGAGGCCUCUGAGUGUGGCUUGUGGUCUGUCCUGGGUUAGAGCUGCUGGUAACACGGAACAUACCACUUAAGACGUUCCAGUCCCGCCUGACACCUUCAUUCCCAAUGGAGAAGAAAUCCAACAGAGGAUUGAGCAUCA
# B3: chr6:35837335:35837336:-_ENSG00000096063_ENST00000361690|hu_hu|motif|central (ssRNA)
# RNA: GGGAGUUCUACAGUCCGACGAUCUUGCUCUUGUUCAUCUUCACAGGGUAUCUCUGCCCGAAUGCUUUCUUGAAGUUGGCGGAUGUGUUGUUCACUGAAUGACUGACCUACAGUUGAGGAAGACUGGCACACCAUGGUGUCUGACAACAGAGGAUUGAGCAUCA
# B4: chr3:179287964:179287965:+_ENSG00000136518_ENST00000429709|hu_hu|hu_hu_hu_mus_True|18_48 (ssRNA)
# RNA: GGGAGUUCUACAGUCCGACGAUCCUUGAGUGGUGAGAUGGCCUCCAUGUUCUCCCUGGGCACGCGGAGGGCAUUGGUGUCUAUGUAGUAGGUGGGACCGCCCUGCUUGCCUUUGUCGCCAUCUAUUUCCAUCAUUGUACUUCCCAACAGAGGAUUGAGCAUCA
# B5: chr2:160604868:160604869:+_ENSG00000136536_ENST00000409591|perfect_dup|motif|central (ssRNA)
# RNA: GGGAGUUCUACAGUCCGACGAUCUGAAUCUGACUCAGAGCUAUGAUUGUGGCUAAGAGAUGACAAACCCCAUCUUCGCCGGAGAAAUCGAAAUCCCUGAGAAGCUUCAGAUGCCCUAUUAUCGGGAACUUCAGAAGCUGAUGGCAACAGAGGAUUGAGCAUCA
# B6: 7935174_7935294_3058_CDS_ENSG00000183248_ENST00000539422|human|control|control (ssRNA)
# RNA: GGGAGUUCUACAGUCCGACGAUCAGCGGCAAGAAGGGGUGGGACCCGUGGAGGGGGCGUGGCCGAAGGAGACAUUGGGGGAGAGGCAGGGGGAGAGGGUGGGACCUGCAGAGGAGGCGCAGCGAGAGGGGGUGGGGCCUGUGGCAACAGAGGAUUGAGCAUCA
# Target: T1, UNK ZnF1-3
# Test: nsRBNS (natural sequence RNA bind-n-seq); RBNS binding buffer (assumed for nsRBNS): 25 mM Tris pH 7.5, 150 mM KCl, 3 mM MgCl2, 0.01% Triton X-100, 500 ug/ml BSA, 20 U/ml SUPERase-In, 4 C; UNK is unkempt and MSI1 is Musashi-1; names of the RNAs are library labels; protein concentration not given here; high values mean tight binding
row,Binder,binding signal
1,B1,0.775 enrichment R
2,B2,0.656 enrichment R
3,B3,0.589 enrichment R
4,B4,0.524 enrichment R
5,B5,0.586 enrichment R
6,B6,0.675 enrichment R
